Measurements published in PubChem BioAssay AID624296 (National Center for Advancing Translational Sciences (NCATS), 2012).
In all, about 350,000 compounds went through this assay and about 9,900 (2.8%) were called active. The inconclusive results got no clear call from the source; some entries with a clear call stand among them for comparison. Calls follow the shape of the dose curve; as a rule, active = well fitted activation curve with a large enough effect; inconclusive = small, poorly fitted or top-dose-only effect; inactive = no such curve, though single readings can be large or run the other way. Potencies of inconclusive entries are left out as doubtful fits.

experiment: A quantitative high throughput screen for small molecules that induce DNA re-replication in MCF 10a normal breast cells.; also: nearly all actives have a fitted effect of over 50% in size; as to activity, positive = re-replication: % of control where 0% means no effect; settings: MCF 10A DNA re-replication, Hoechst nuclear intensity, 48 h; activity, positive = re-replication: at 46.1 µM (top of the series)
Potency is read from the fitted curve at half-maximal effect; tags tell the direction and shape of the fitted curve.

Row | Compound | Potency | activity, positive = re-replication
1 | Cc1ccc2[nH]c(C)cc(=S)c2c1 | active: 23.1 µM | 
2 | COCCNC(=O)c1ccc(C2SCC(=O)N2Cc2ccco2)cc1 (stereo not given) |  | inactive: -33.6%
3 | CCCCn1c(=O)nc2n(-c3ccccc3C)c3ccccc3cc-2c1=O |  | inactive: 0.876%
4 | CCOC(=O)c1c(C)[nH]c(C)c1C(=O)CSc1nc2ccccc2n1CC |  | inactive: 1.97%
5 | C/C(=N\NC(=O)c1cc(-c2ccc(C)s2)[nH]n1)c1ccco1 | inconclusive [activator, single point] | 
6 | Nc1c(C(=O)NCc2ccc(F)cc2)c2nc3ccccc3nc2n1CCCN1CCOCC1 | inconclusive [activator, full curve, poor fit] | 
7 | Cc1ccc(S(=O)(=O)Nc2nc3ccccc3s2)cc1 |  | inactive: 0.0306%
8 | O=C(NCc1ccco1)c1cc(-c2ccccc2)nn1CC1CC(c2cccnc2)=NO1 (stereo not given) | inconclusive [activator, single point] | 
9 | Cc1ccc(-c2cccc(CN3CCN(C(C)C)C(CCO)C3)c2)o1 (stereo not given) | inconclusive [activator, single point] | 
10 | CCN(CC)S(=O)(=O)c1cccc(C(=O)NCC(c2ccccc2)N(C)C)c1 (stereo not given) | inconclusive [activator, single point] | 
11 | Cc1ccc(CC2SC(N)=NC2=O)cc1 (stereo not given) | inconclusive [activator, single point] | 
12 | O=C(Cc1ccccc1)Nc1cccc(C(=O)N/N=C/c2ccco2)c1 | inconclusive [activator, full curve, poor fit] | 
13 | COc1ccc(NC(=O)CN(C)C(=O)c2cn(-c3ccccc3)nc2-c2cccnc2)cc1 |  | inactive: 9.58%
14 | Cc1ccc(S(=O)(=O)NC(=O)NCc2ccc3c(c2)OCO3)cc1 | inconclusive [activator, single point] | 
15 | COc1ccc(-c2ccc(CCC(=O)O)o2)cc1 | inconclusive [activator, single point] | 
16 | O=C(Nc1cc(Cl)ccc1O)C1CC(c2c(F)cccc2Cl)=NO1 (stereo not given) | inconclusive [activator, partial curve, poor fit] | 
17 | CCCCCCNC(=O)C(C#N)c1nc2ccccc2nc1N1CCCC1 (stereo not given) | active: 13 µM | 
18 | Oc1ccc(-c2nnc(SCc3ccccc3)o2)cc1 | inconclusive [activator, single point] | 
19 | Cc1ccc(-c2[nH]nc(N)c2N=Nc2ccccc2C)cc1 | inconclusive [activator, partial curve] | 
20 | CCc1c(C(=O)O)[nH]c2ccc(Br)cc12 | inconclusive [activator, single point] | 
21 | O=C(c1cc([N+](=O)[O-])ccc1N1CCOCC1)N1CCOCC1 |  | inactive: -0.584%
22 | Cc1sc2nc(SCC(=O)NCc3ccco3)n(Cc3ccccc3)c(=O)c2c1C | inconclusive [activator, partial curve] | 
23 | C/C(=N\OCC(=O)OC(C)C(=O)Nc1ccc(C(N)=O)cc1)c1ccc2c(c1)OCO2 (stereo not given) |  | inactive: 0.425%
24 | Cc1cccc(C)c1OCc1cc(C(=O)N2CCC(c3ccccc3)CC2)no1 | inconclusive [activator, single point] | 

Row | Compound | Potency | activity, positive = re-replication
25 | O=[N+]([O-])c1ccc(NCc2ccccc2)nc1 | inconclusive [activator, partial curve, poor fit] | 
26 | N#CC(=C(O)COC(=O)Cc1c[nH]c2ccccc12)c1nc2ccccc2[nH]1 | inconclusive [activator, single point] | 
27 | Cn1c(CC(=O)NC(C)(C)CO)c(Sc2ccccc2)c2ccccc21 | inconclusive [activator, partial curve, poor fit] | 
28 | Cc1cccc(NC(=S)Nc2ccc(Br)cc2)c1 | inconclusive [activator, single point] | 
29 | O=C(/C=C/c1ccccc1)Nc1cc(S(=O)(=O)N2CCOCC2)ccc1N1CCCC1 | inconclusive [activator, full curve, poor fit] | 
30 | Cc1nc(SCC(=O)NC2CCCCC2C)c(C#N)c(C)c1C (stereo not given) |  | inactive: 0.386%
31 | COc1cc(C2C(C#N)=C(N)N(Nc3ccccc3)C3=C2C(=O)CC(C)(C)C3)ccc1OCc1cccc(F)c1 (stereo not given) | inconclusive [activator, partial curve, poor fit] | 
32 | COc1ccc2oc(=O)c(-c3csc(Nc4cccc(O)c4)n3)cc2c1 | active: 23.1 µM | 
33 | O=C(NNc1ccc([N+](=O)[O-])cc1)C1C2CCCCC21 (stereo not given) | inconclusive [activator, single point] | 
34 | CCc1ccc(OCC(O)CN2CCN(c3ccccc3)CC2)cc1 (stereo not given) | inconclusive [activator, single point] | 
35 | COc1ccc(C(=O)Nc2ccc(C(=O)OCC(=O)c3cccc4ccccc34)cc2)cc1 |  | inactive: -2.67%
36 | CCCCCn1c(CN2CCN(Cc3ccccc3)CC2)nc2c1c(=O)n(C)c(=O)n2C |  | inactive: 0.411%
37 | CC(=O)OCc1c(-c2ccccc2)c2cc([N+](=O)[O-])ccc2n1C | inconclusive [activator, partial curve, poor fit] | 
38 | O=C(Oc1ccc2c(-c3ccccc3)cc(=O)oc2c1)C1CCCCC1 | inconclusive [activator, partial curve, poor fit] | 
39 | CC1(C)Cc2cccc(OCC(=O)OCC(=O)c3ccccc3)c2O1 | inconclusive [activator, full curve, poor fit] | 
40 | Cc1ccc(S(=O)(=O)N2CCOCC2)cc1C(=O)OCC(=O)NCCc1ccc(F)cc1 | inconclusive [activator, single point] | 
41 | COC(=O)Nc1nc(-c2ccccc2)c(C(=O)c2ccc(Cl)cc2)s1 | active: 1.03 µM | 
42 | O=C(NCc1ccccc1)C(c1ccccc1)N(C(=O)c1csnn1)c1ccc(F)cc1 (stereo not given) | inconclusive [activator, single point] | 
43 | c1ccc(-n2cnnc2SCc2nc3ccccc3s2)cc1 | inconclusive [activator, single point] | 
44 | NC(=O)c1ccsc1NC(=O)c1coc2ccccc2c1=O | inconclusive [activator, single point] | 
45 | OC1c2cc(Cl)ccc2-c2c(Cl)cc(Cl)cc21 (stereo not given) | inconclusive [activator, single point] | 
46 | O=c1c2c3c(sc2n2cnnc2n1Cc1ccccc1)CN(Cc1ccccc1)CC3 |  | inactive: -2.08%
47 | C/C(CCN1CCc2nc(-c3ccccc3)c(-c3ccccc3)cc2C1)=N\O[C@@H](C)c1cn([C@H](CO)Cc2ccccc2)nn1 | inconclusive [activator, partial curve, poor fit] | 
48 | CNc1nc(-c2ccc3c(c2)CCN3C(=O)CC(C)(C)C)c(C)s1 |  | inactive: 3.31%

Row | Compound | Potency | activity, positive = re-replication
49 | Cc1ccc(Oc2ccccc2/C=C2\SC(=O)N(C)C2=O)cc1 |  | inactive: 5.29%
50 | COc1ccc(C)cc1N1CC(C(=O)OCc2nc(N)nc(Nc3ccccc3C)n2)CC1=O (stereo not given) |  | inactive: -9.04%
51 | Cc1cccc(NC(=S)N(CCCN2CCOCC2)Cc2cn(C)c3ccccc23)c1 | inconclusive [activator, single point] | 
52 | CCC(CC)c1nnc(NC(=O)c2ccc(S(=O)(=O)N3CCc4ccccc4C3)cc2)s1 | inconclusive [activator, partial curve, poor fit] | 
53 | O=C(O)/C=C/c1ccc(S(=O)(=O)NCc2cccnc2)cc1 |  | inactive: -0.869%
54 | Cc1cc(C)nc(Nc2nc(-c3ccccc3)cs2)n1 |  | inactive: 2.91%
55 | Cc1ccc(-c2c(C#N)c(N)n(-c3ccc(C)cc3)c(=O)c2C#N)cc1 | inconclusive [activator, single point] | 
56 | O=C(COc1ccccc1)NNC(=O)c1ccc(Cl)cc1 |  | inactive: 1.38%
57 | OC(CN1CCN(Cc2ccccc2)CC1)Cn1c2ccccc2c2ccccc21 (stereo not given) | inconclusive [activator, single point] | 
58 | O=C(Cn1cnc2c(OCc3ccccc3)ncnc21)NCc1ccccc1 | inconclusive [activator, single point] | 
59 | CNCc1ccccc1Sc1ccc(O)c(O)c1 | inconclusive [activator, single point] | 
60 | CSc1nncn1/N=C/c1ccc([N+](=O)[O-])cc1 |  | inactive: 22.6%
61 | Cc1ccc(S(=O)(=O)N(C(=O)c2ccncc2)c2ccc3oc4c(c3c2)CCCC4)cc1[N+](=O)[O-] | active: 14.6 µM | 
62 | c1ccc(CCn2nnnc2C(c2cccs2)N2CCN(Cc3ccc4c(c3)OCO4)CC2)cc1 (stereo not given) | inconclusive [activator, single point] | 
63 | O=C(Nc1ccc2oc(-c3cccc(F)c3)nc2c1)c1ccccc1F | inconclusive [activator, single point] | 
64 | Cc1cc(C(=O)CSc2nnc(-c3ccc(Cl)cc3)n2C)c(C)n1CC1CCCO1 (stereo not given) |  | inactive: 4.15%
65 | COCCNC(=O)/C(C#N)=C/c1c(F)cccc1Cl | inconclusive [activator, single point] | 
66 | Cc1ccc(S(=O)(=O)N2CCCC2C(=O)Nn2cnnc2)cc1 (stereo not given) | inconclusive [activator, single point] | 
67 | CC1(C)COC(c2ccc(F)c([N+](=O)[O-])c2)=N1 | active: 23.1 µM | 
68 | CC(C)OC(=O)/C(C#N)=C/c1cn(Cc2ccccc2)c2ccccc12 | inconclusive [activator, single point] | 
69 | CCOC(=O)C1(CCCc2ccccc2)CCN(C(=O)CN2C(=O)CSC2=O)CC1 | inconclusive [activator, single point] | 
70 | CN(CCc1ccccc1)C(=O)c1cccc(NC(=O)Cc2cccc(NC(=O)C3CCCN(C(=O)C4CCC4)C3)c2)c1 (stereo not given) | inconclusive [activator, partial curve] | 
